# Reference: PubChem BioAssay AID256 (DTP/NCI, 2004)
# Inconclusive results and toxic doses are left out. For part of its entries the source gives two or more results. The other results are left out here. The source may hold further records. Values given together are repeated measurements (runs, samples, wells, individuals or studies).
# Tested on: CD2F1 mice, L1210 leukemia ip, survival T/C
# Assay: NCI In Vivo Anticancer Drug Screen. Data for tumor model L1210 Leukemia (intraperitoneal) in CD2F1 (CDF1) mice
# Conditions: higher = longer survival
# In short: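 In this screen, transplantable tumors were grown in mice given either the compound or its vehicle. Results were expressed as the treated measurement relative to the control measurement.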
smiles,measurement,setting,value
Cc1cc(NCCCCCCCNc2cc(C)nc3cc(N)ccc23)c2ccc(N)cc2n1,T/C,"endpoint: mean survival time, dose: 3.12 mg/kg/injection, schedule: Q01DX009 (ip), vehicle: saline with Tween-80",121 % of control and 151 % of control
COc1cc(NCc2ccc3nc(N)nc(N)c3c2C)cc(OC)c1OC,T/C,"endpoint: median survival time, dose: 80.0 mg/kg/injection, schedule: Q01DX009 (ip), vehicle: sodium bicarbonate",102 % of control and 196 % of control
CN1N=C(N)c2cn(C3OC(COP(=O)(O)O)C(O)C3O)c3ncnc1c23 (stereo not given),T/C,"endpoint: mean survival time, dose: 100.0 mg/kg/injection, schedule: Q01DX009 (ip), vehicle: water",114 % of control and 150 % of control
CCC1(O)C(=O)OCc2c1cc1n(c2=O)Cc2cc3cc(Cl)ccc3nc2-1 (stereo not given),T/C,"endpoint: median survival time, dose: 20.0 mg/kg/injection, schedule: Q04DX002 (ip), vehicle: saline with Tween-80",115 % of control and 158 % of control
NC1CCCCC1N.O=S(=O)([O-])c1ccccc1S(=O)(=O)[O-].[Pt+4],T/C,"endpoint: median survival time, dose: 3.12 mg/kg/injection, schedule: Q04DX003 (ip), vehicle: saline",121 % of control and 150 % of control
